Results taken from the supplement of paper PMC11417369.
The list shows a part of the results.

The sequences below were run on PfAP2-HC AP2 domain (GST-tagged) (assay: gcPBM binding intensity (ln(normalized median fluorescence intensity)); higher = stronger DNA binding).
Summary of the method: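 GST-tagged P. falciparum DNA-binding domains, expressed in E. coli (about 25 μg on average), were applied for 1 h to an Agilent 4 × 180k array of primer-extended double-stranded 36-bp intergenic genomic probes plus negative controls. The binding buffer was 1× PBS with 1% milk, 0.2 mg/ml BSA, 0.5% salmon testes DNA and 0.03% Triton X-100. Bound protein was detected with Alexa488 anti-GST antibody and scanned at 488 nm. Binding intensity is the highest Masliner-normalised natural-log median intensity across replicate spots of either probe orientation.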

Compared with “ATTTCTTTGCTTTTCAAACACACAAAAGTTATTATA [CACACA_site520]”, “TCATTCCATACTTTAACACACAAATATATTTAATCC [CACACA_site145]” is higher in “gcPBM binding intensity (ln)” value: 9.71 for the first, 9.85 for the second.

Going from “TTTTTTTTTTTGTTTTGTACATAAATTGCAACCAAT [XGTACX_site8949]” to “ATATATATATATATATGTACATATTCACTTATATTT [XGTACX_site5324]”, the “gcPBM binding intensity (ln)” value rises from 9.55 to 9.65.

“TAACATAAATCCATACGTACCTATATATATATAATA [XGTACX_site2626]” and ATTTATATTAAAAGTGTGCACTTTTTTTTTTTTTTT are the same in “gcPBM binding intensity (ln)” value: 9.58 for the first, 9.58 for the second.

First: TAAGTAAACTTTCTATGTACATATTTTCAAATATTA [XGTACX_site6260]
Second: CTTATATATACATATACACACACACCCATATATATA [CACACA_site8705]
The “gcPBM binding intensity (ln)” value of the first is lower: 9.66 for the first, 10.5 for the second.

Compared with “GGTATAATTCATATAACACACATTTCAATGTTAAAA [CACACA_site2172]”, “TGTATTAATTTGTAATGTACACATATATGTATTATA [XGTACX_site4152]” is higher in “gcPBM binding intensity (ln)” value: 9.66 for the first, 9.74 for the second.

Compared with “CCAAAATTTATAAATTGTACATATTTTTAAATTCTT [XGTACX_site833]”, “ATAAAAGAATTAAATAATCAAAATGATTATTTTATA [CACACA_negctrl_site466]” is lower in “gcPBM binding intensity (ln)” value: 9.51 for the first, 9.39 for the second.

First: GATAAATAATAATAAGGTACACATAAAATATTCCTT [XGTACX_site2963]
Second: TTAACAAAATTTTTAACACACAAAAAAAAAAAAAAA [CACACA_site1828]
The “gcPBM binding intensity (ln)” value of the first is higher: 9.71 for the first, 9.39 for the second.

Compared with “ATGTAGACAACATATGAACACACAAAATATTTTTTT [CACACA_site8955]”, “TCTTTTGTTTAACCTACATGCAGAATATAAGTCTTC [TGCATGCA_site99]” is lower in “gcPBM binding intensity (ln)” value: 9.91 for the first, 9.51 for the second.

Compared with “ATTCATTATTCACCTTGTACACAAATGATTATCGTA [XGTACX_site455]”, “TGTTTAAAAATAATTTGTACATATATTTTATTTCAT [XGTACX_site1272]” is lower in “gcPBM binding intensity (ln)” value: 9.77 for the first, 9.64 for the second.

First: ATAAAGAAATAAAGTTGTACATTATATATATATATA [XGTACX_site7729]
Second: AATAATTTTTTAAACACACACACATATATATATATA [CACACA_site95]
The “gcPBM binding intensity (ln)” value of the first is lower: 9.61 for the first, 10.7 for the second.

First: AATACATACGGACACACACACACATATATATATATA [CACACA_site5884]
Second: TATAAAAATAGGATTTGTACATATAAAAAAGGAAAA [XGTACX_site8678]
The “gcPBM binding intensity (ln)” value of the first is higher: 11.6 for the first, 9.73 for the second.

Compared with “TAATATAAAAAAGGTACTACACGAAGGAATAAAAAT [XGTACX_site6872]”, “TATAAATATATGTATGCACACATTTTTTTTGGAAAA [CACACA_site1070]” is lower in “gcPBM binding intensity (ln)” value: 9.9 for the first, 9.62 for the second.

First: CAGAAATAGAGATACACACACACATATATTTATGTA [CACACA_site3968]
Second: TTTGTTCTTTTAATGTGTACATATACACTTGTAATA [XGTACX_site2635]
The “gcPBM binding intensity (ln)” value of the first is higher: 11.3 for the first, 9.74 for the second.

Compared with “AAAAAAAAAAGAAACACACACATTTGTCTATAATAT [CACACA_site7063]”, “ATGTATGCAAAAATGGTGCATATTAAATGTATAACA [GTGCAC_site9722]” is lower in “gcPBM binding intensity (ln)” value: 10.2 for the first, 9.87 for the second.

Going from “TGACCTTATGTGTTTTGAAGGGGAAAGGAAATGCGC [XGTACX_negctrl_site411]” to “ATAATATATACTAAAAGTACATATTATAATAAATTA [XGTACX_site6749]”, the “gcPBM binding intensity (ln)” value rises from 9.44 to 9.57.

Going from “GAAATAATTGTTAAAGGTACACAATGCATATACAAT [XGTACX_site238]” to “ACTTCATTTTTTTTATGTACACAGAAGATTTACAAA [XGTACX_site4021]”, the “gcPBM binding intensity (ln)” value falls from 9.82 to 9.66.

Compared with “AGGAAAATAGAAAAAGCACACATATATTTTGGAATG [CACACA_site8080]”, “ACATATGTATGAATATCAAAAAATCCCTATTTAATG [GTGCAC_negctrl_site27]” is lower in “gcPBM binding intensity (ln)” value: 9.92 for the first, 9.64 for the second.

First: AAAATAATAATTAATACATGCATTAATTCTTTTTTT [TGCATGCA_site741]
Second: TATATAAATAAATGTGTACACACATTAAAATCAAAC [CACACA_site8733]
The “gcPBM binding intensity (ln)” value of the first is lower: 9.53 for the first, 10.1 for the second.

First: CATATATTATTTAATAGTACATATAAAAGAAAAAAA [XGTACX_site4643]
Second: TATATACATATATATACACACATATATATATTTTAT [CACACA_site3788]
The “gcPBM binding intensity (ln)” value of the first is lower: 9.55 for the first, 9.88 for the second.

First: ATTTATTTATTTTTTTGTACGAATGTTGCACATATA [XGTACX_site4101]
Second: ATAGAAACATATTGACGTACAGTATAATAATACAGT [XGTACX_site197]
The “gcPBM binding intensity (ln)” value of the first is lower: 9.73 for the first, 9.91 for the second.

First: AAATCAACTTATTTTTGTACATATATTTATTATATA [XGTACX_site2925]
Second: GAAAAATTAATAAATAAACACACATATATATATATA [CACACA_site8835]
The “gcPBM binding intensity (ln)” value of the first is higher: 9.85 for the first, 9.82 for the second.

First: TCTTTATGTAAGGTCTTCCACAAAAAAATTAAAAAA [TGCATGCA_negctrl_site229]
Second: ATATATTATAGAGGTGTGCACTACATACATTATAAT [GTGCAC_site9991]
The “gcPBM binding intensity (ln)” value of the first is lower: 9.1 for the first, 9.96 for the second.
